{"source": "the supplement of paper PMC8728848", "experiment_in_all_cases": "glycan array binding signal (z-score within array); higher = stronger binding", "details_in_all_cases": "glycan notation: IUPAC condensed, linker removed", "key": {"[1]": {"target": "Fuc(a1-2)Gal(b1-4)GlcNAc(b1-2)[Fuc(a1-2)Gal(b1-4)GlcNAc(b1-4)]Man(a1-3)[Fuc(a1-2)Gal(b1-4)GlcNAc(b1-2)Man(a1-6)]Man(b1-4)GlcNAc(b1-4)GlcNAc", "method_in_brief": "(§1)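 The Consortium for Functional Glycomics database supplied 3228 glycan arrays, of which those lacking an available protein sequence were dropped. The binding signal, a within-array Z-score, was averaged across arrays of the same protein sequence and across linkers. Negative scores can be read as non-binding.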"}, "[2]": {"target": "Fuc(a1-2)Gal(b1-4)GlcNAc(b1-3)Gal(b1-4)GlcNAc", "method_in_brief": "as §1"}, "[3]": {"target": "Fuc(a1-2)Gal(b1-4)GlcNAc(b1-3)Gal(b1-4)GlcNAc(b1-2)Man(a1-3)[Fuc(a1-2)Gal(b1-4)GlcNAc(b1-3)Gal(b1-4)GlcNAc(b1-2)Man(a1-6)]Man(b1-4)GlcNAc(b1-4)GlcNAc", "method_in_brief": "as §1"}, "[4]": {"target": "Fuc(a1-2)Gal(b1-4)GlcNAc(b1-3)Gal(b1-4)GlcNAc(b1-3)Gal(b1-4)GlcNAc", "method_in_brief": "as §1"}, "[5]": {"target": "Fuc(a1-2)Gal(b1-4)GlcNAc(b1-3)GalNAc", "method_in_brief": "as §1"}, "[6]": {"target": "Fuc(a1-2)Gal(b1-4)GlcNAc(b1-3)[Fuc(a1-2)Gal(b1-4)GlcNAc(b1-6)]GalNAc", "method_in_brief": "as §1"}, "[7]": {"target": "Fuc(a1-2)Gal(b1-4)GlcNAc(b1-3)[Fuc(a1-3)[Gal(b1-4)]GlcNAc(b1-6)]Gal(b1-4)Glc", "method_in_brief": "as §1"}, "[8]": {"target": "Fuc(a1-2)Gal(b1-4)GlcNAc(b1-6)GalNAc", "method_in_brief": "as §1"}, "[9]": {"target": "Fuc(a1-2)Gal(b1-4)GlcNAc6S", "method_in_brief": "as §1"}, "[10]": {"target": "Fuc(a1-2)Gal(b1-4)[Fuc(a1-3)]GlcNAc", "method_in_brief": "as §1"}, "[11]": {"target": "Fuc(a1-2)Gal(b1-4)[Fuc(a1-3)]GlcNAc(b1-2)Man(a1-3)[Fuc(a1-2)Gal(b1-4)[Fuc(a1-3)]GlcNAc(b1-2)Man(a1-6)]Man(b1-4)GlcNAc(b1-4)GlcNAc", "method_in_brief": "as §1"}, "[12]": {"target": "Fuc(a1-2)Gal(b1-4)[Fuc(a1-3)]GlcNAc(b1-2)Man(a1-3)[Fuc(a1-2)Gal(b1-4)[Fuc(a1-3)]GlcNAc(b1-2)Man(a1-6)]Man(b1-4)GlcNAc(b1-4)[Fuc(a1-6)]GlcNAc", "method_in_brief": "as §1"}, "[13]": {"target": "Fuc(a1-2)Gal(b1-4)[Fuc(a1-3)]GlcNAc(b1-2)[Fuc(a1-2)Gal(b1-4)[Fuc(a1-3)]GlcNAc(b1-4)]Man(a1-3)[Fuc(a1-2)Gal(b1-4)[Fuc(a1-3)]GlcNAc(b1-2)Man(a1-6)]Man(b1-4)GlcNAc(b1-4)GlcNAc", "method_in_brief": "as §1"}, "[14]": {"target": "Fuc(a1-2)Gal(b1-4)[Fuc(a1-3)]GlcNAc(b1-3)Gal(b1-4)[Fuc(a1-3)]GlcNAc", "method_in_brief": "as §1"}, "[15]": {"target": "Fuc(a1-2)Gal(b1-4)[Fuc(a1-3)]GlcNAc(b1-3)Gal(b1-4)[Fuc(a1-3)]GlcNAc(b1-3)Gal(b1-4)[Fuc(a1-3)]GlcNAc", "method_in_brief": "as §1"}, "[16]": {"target": "Fuc(a1-2)Gal(b1-4)[Fuc(a1-3)]GlcNAc(b1-3)GalNAc", "method_in_brief": "as §1"}, "[17]": {"target": "Fuc(a1-2)Gal(b1-4)[Fuc(a1-3)]GlcNAc(b1-3)[Neu5Ac(a2-6)Gal(b1-4)GlcNAc(b1-6)]Gal(b1-4)Glc", "method_in_brief": "as §1"}, "[18]": {"target": "Fuc(a1-2)Gal3S(b1-4)GlcNAc", "method_in_brief": "as §1"}, "[19]": {"target": "Fuc(a1-2)Gal6S(b1-3)GlcNAc", "method_in_brief": "as §1"}, "[20]": {"target": "Fuc(a1-2)Gal6S(b1-3)GlcNAc6S", "method_in_brief": "as §1"}, "Fuc(a1-2)Gal6S(b1-4)Glc": {"target": "Fuc(a1-2)Gal6S(b1-4)Glc", "method_in_brief": "as §1"}, "[21]": {"target": "Fuc(a1-2)Gal6S(b1-4)Glc6S", "method_in_brief": "as §1"}, "[22]": {"target": "Fuc(a1-2)Gal6S(b1-4)GlcNAc", "method_in_brief": "as §1"}, "Fuc(a1-2)[Gal(a1-3)]Gal": {"target": "Fuc(a1-2)[Gal(a1-3)]Gal", "method_in_brief": "as §1"}, "[23]": {"target": "Fuc(a1-2)[Gal(a1-3)]Gal(b1-3)GalNAc", "method_in_brief": "as §1"}, "[24]": {"target": "Fuc(a1-2)[Gal(a1-3)]Gal(b1-3)GalNAc(b1-3)Gal(a1-4)Gal(b1-4)Glc", "method_in_brief": "as §1"}, "[25]": {"target": "Fuc(a1-2)[Gal(a1-3)]Gal(b1-3)GlcNAc", "method_in_brief": "as §1"}, "[26]": {"target": "Fuc(a1-2)[Gal(a1-3)]Gal(b1-3)GlcNAc(b1-2)Man(a1-3)[Fuc(a1-2)[Gal(a1-3)]Gal(b1-3)GlcNAc(b1-2)Man(a1-6)]Man(b1-4)GlcNAc(b1-4)GlcNAc", "method_in_brief": "as §1"}, "[27]": {"target": "Fuc(a1-2)[Gal(a1-3)]Gal(b1-3)GlcNAc(b1-2)Man(a1-3)[Fuc(a1-2)[Gal(a1-3)]Gal(b1-3)GlcNAc(b1-2)Man(a1-6)]Man(b1-4)GlcNAc(b1-4)[Fuc(a1-6)]GlcNAc", "method_in_brief": "as §1"}, "[28]": {"target": "Fuc(a1-2)[Gal(a1-3)]Gal(b1-3)GlcNAc(b1-3)GalNAc", "method_in_brief": "as §1"}}, "note": "The list shows a part of the results."}
{"binder": "Gal 9 (Homo sapiens), O00182 (protein) MAFSGSQAPYLSPAVPFSGTIQGGLQDGLQITVNGTVLSSSGTRFAVNFQTGFSGNDIAFHFNPRFEDGGYVVCNTRQNGSWGPEERKTHMPFQKGMPFDLCFLVQSSDFKVMVNGILFVQYFHRVPFHRVDTISVNGSVQLSYISFQNPRTVPVQPAFSTVPFSQPVCFPPRPRGRRQKPPGVWPANPAPITQTVIHTVQSAPGQMFSTPAIPPMMYPHPAYPMPFITTILGGLYPSKSILLSGTVLPSAQRFHINLCSGNHIAFHLNPRFDENAVVRNTQIDNSWGSEERSLPRKMPFVRGQSFSVWILCEAHCLKVAVDGQHLFEYYHRLRNLPTINRLEVGGDIQLTHVQT", "values": [{"measurement": "glycan array binding signal (z-score)", "setting": "[1]", "value": 0.133}, {"measurement": "glycan array binding signal (z-score)", "setting": "[2]", "value": 0.762}, {"measurement": "glycan array binding signal (z-score)", "setting": "[3]", "value": -0.291}, {"measurement": "glycan array binding signal (z-score)", "setting": "[4]", "value": 0.746}, {"measurement": "glycan array binding signal (z-score)", "setting": "[5]", "value": -0.277}, {"measurement": "glycan array binding signal (z-score)", "setting": "[6]", "value": -0.3}, {"measurement": "glycan array binding signal (z-score)", "setting": "[7]", "value": -0.3}, {"measurement": "glycan array binding signal (z-score)", "setting": "[8]", "value": -0.283}, {"measurement": "glycan array binding signal (z-score)", "setting": "[9]", "value": 0.06}, {"measurement": "glycan array binding signal (z-score)", "setting": "[10]", "value": -0.322}, {"measurement": "glycan array binding signal (z-score)", "setting": "[11]", "value": -0.263}, {"measurement": "glycan array binding signal (z-score)", "setting": "[12]", "value": -0.264}, {"measurement": "glycan array binding signal (z-score)", "setting": "[13]", "value": -0.276}, {"measurement": "glycan array binding signal (z-score)", "setting": "[14]", "value": -0.312}, {"measurement": "glycan array binding signal (z-score)", "setting": "[15]", "value": -0.311}, {"measurement": "glycan array binding signal (z-score)", "setting": "[16]", "value": -0.306}, {"measurement": "glycan array binding signal (z-score)", "setting": "[17]", "value": -0.308}, {"measurement": "glycan array binding signal (z-score)", "setting": "[18]", "value": -0.302}, {"measurement": "glycan array binding signal (z-score)", "setting": "[19]", "value": -0.276}, {"measurement": "glycan array binding signal (z-score)", "setting": "[20]", "value": -0.319}, {"measurement": "glycan array binding signal (z-score)", "setting": "Fuc(a1-2)Gal6S(b1-4)Glc", "value": -0.31}, {"measurement": "glycan array binding signal (z-score)", "setting": "[21]", "value": -0.315}, {"measurement": "glycan array binding signal (z-score)", "setting": "[22]", "value": -0.331}, {"measurement": "glycan array binding signal (z-score)", "setting": "Fuc(a1-2)[Gal(a1-3)]Gal", "value": -0.319}, {"measurement": "glycan array binding signal (z-score)", "setting": "[23]", "value": -0.278}, {"measurement": "glycan array binding signal (z-score)", "setting": "[24]", "value": -0.307}, {"measurement": "glycan array binding signal (z-score)", "setting": "[25]", "value": -0.036}, {"measurement": "glycan array binding signal (z-score)", "setting": "[26]", "value": 0.637}, {"measurement": "glycan array binding signal (z-score)", "setting": "[27]", "value": 0.01}, {"measurement": "glycan array binding signal (z-score)", "setting": "[28]", "value": -0.256}]}
